# Experimental data taken from PubChem BioAssay AID1347417 (National Center for Advancing Translational Sciences (NCATS), 2020).
# Values joined by “and” are separate entries in the source; they are usually repeats but may differ in a detail not shown here. Equal entries are not always repeated. Out of some 120,000 compounds screened, about 5,300 (4.4%) were called active. The shares of active, inactive and inconclusive entries below differ from those in the screen. Calls follow the shape of the dose curve; as a rule, active = well fitted inhibition curve with a large enough effect; inconclusive = small, poorly fitted or top-dose-only effect; inactive = no such curve, though single readings can be large or run the other way. Potencies of inconclusive entries are doubtful fits and often do not repeat.
# Assay: qHTS Primary assay for Inhibitors of Plasmodium falciparum Dd2 growth in vitro; also: nearly all actives have a fitted effect of over 65% in size;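 as to activity, negative = inhibition: plate controls were DMSO vehicle for no effect and reference drug for full effect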
# Conditions: P. falciparum Dd2 growth, SYBR Green, 72 h; activity, negative = inhibition: at 28.9 µM (top of the series) unless noted; series mostly up to 28.9 µM
# Summary of the method: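 Readout: SYBR Green fluorescence, 485 nm excitation, 535 nm emission, after ~16 h lysis at 37C. Before that, Dd2-infected red cells (2.5% hematocrit) grew 72 h with compound, 29 uM top final concentration.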
# Potency is read from the fitted curve at half-maximal effect; tags tell the direction and shape of the fitted curve.
SMILES,Potency,outcome,"activity, negative = inhibition"
O=C(Cc1cccs1)N1CCOc2ccc(CN3CCCCC3)cc2C1,"inconclusive: 10 µM [inhibitor, partial curve, poor fit]",–,–
COc1ccc(S(=O)(=O)N[C@H]2C[C@@H](c3nc(Cc4ccccc4)no3)N(C)C2)cc1,"inconclusive: 10 µM [inhibitor, partial curve, poor fit]",–,–
O=C1N(CCc2ccccc2)c2ccccc2C12CCN(Cc1ccncc1)C2 (stereo not drawn),"inconclusive: 10 µM [inhibitor, partial curve, poor fit] and inconclusive: 11.2 µM [inhibitor, single point]",–,–
O=C(CC1CCOC2(CCN(C3CCN(Cc4ccccc4)CC3)CC2)C1)N1CCCC1 (stereo not drawn),"inconclusive: 3.98 µM [inhibitor, single point]",–,–
Cc1nc2cccnc2n1CC1CCCN(S(=O)(=O)c2cc(F)ccc2F)C1 (stereo not drawn),–,inactive,–
COc1ccccc1CN1CC(COc2ccccc2)C2(C1)CN(C(=O)c1cn[nH]c1)C2 (stereo not drawn),"inconclusive: 3.55 µM [inhibitor, single point]",–,–
CC(=O)N1CCc2cc(S(=O)(=O)NCCCC(=O)N3CCC(CCOc4ccccc4)C3)ccc21 (stereo not drawn),"inconclusive: 3.55 µM [inhibitor, partial curve, poor fit]",–,–
Cc1nn(Cc2ccccc2)c(C)c1[C@@H]1C=C[C@@H](NC(=O)c2ccc(F)c(Cl)c2)C1,"inconclusive: 1.58 µM [inhibitor, full curve, poor fit]",–,–
O=C(NCc1ccc(F)cc1)[C@H]1CN2CCC1C[C@@H]2Cn1cc(CSc2ccccc2)nn1 (stereo partly drawn),"inconclusive: 11.2 µM [inhibitor, partial curve, poor fit]",–,–
COCCc1noc([C@@H]2CN(CC3CCCCC3)C[C@H]2CO)n1,"inconclusive: 12.6 µM [inhibitor, partial curve, poor fit]",–,–
COc1ccc(C2Cn3cnc(C(=O)N4CCC(C(=O)Nc5ccccc5OC)CC4)c3CO2)cc1 (stereo not drawn),active: 10 µM,–,–
Cc1ccc2nc(C3CCN(CC4CCCC4)CC3)[nH]c(=O)c2c1,inactive,–,–
COc1cccc(N2C(=O)NC(=NC3CCCC3)C23CCCN([S+](=O)([O-])c2cccc(OC)c2)C3)c1 (stereo not drawn),"inconclusive: 12.6 µM [inhibitor, single point]",–,–
O=C(NC1CCN(C(=O)N2CC3CC(C2)[C@H]2CCCC(=O)N2C3)CC1)c1n[nH]c2ccccc12 (stereo partly drawn),–,inactive,–
CCCC(=O)N1Cc2ccccc2CC2(CCN(Cc3ccc(C(F)(F)F)nc3)CC2)C1,"inconclusive: 7.94 µM [inhibitor, partial curve, poor fit]",–,–
CCOc1ccc(Sc2cc(C(=O)NCc3ccc(F)cc3)c3ccccc3n2)cc1,"inconclusive: 17.8 µM [inhibitor, single point]",–,–
CCn1cc(C(=O)N2CCN(c3ccccc3)CC2)c(=O)c2cc(S(=O)(=O)N(C)C3CCCCC3)ccc21,"inconclusive: 0.0891 µM [inhibitor, full curve, poor fit]",–,–
Cc1ccc(NC(=O)N2CCc3c(c4ccccc4n3CC3CC3)C2)cc1,"inconclusive: 3.16 µM [inhibitor, single point]",–,–
COC(=O)c1ccc(Cn2c(=O)cc(C)c3c(C)nn(C)c32)cc1,–,–,inactive: 6.02%
CCOc1ccc(C2Cn3nnc(-c4nc(C(C)(C)C)no4)c3CO2)cc1 (stereo not drawn),–,–,inactive: -5.32%
O=C(Nc1ccc2ncnc(N3CCCC3)c2c1)c1ccc(F)c(F)c1,"inconclusive: 3.55 µM [inhibitor, single point]",–,–

SMILES,Potency,outcome,"activity, negative = inhibition"
COc1ccc(Nc2nc(-c3c(C)noc3C)cc3cc(CO)oc23)cc1OC,active: 7.94 µM,–,–
COc1ccc2[nH]c(C[C@@H]3C[C@@H](C(C)C)[C@H](CNCc4ccccc4O)C=C3C)nc2n1,"inconclusive: 0.1 µM [inhibitor, full curve, poor fit]",–,–
Cc1cc(C)c2c(=O)cc(C(=O)NCCc3ccc(S(N)(=O)=O)cc3)oc2c1,–,–,inactive: 41.7%
COc1ccc(NC(=O)c2cccc(N3CCCS3(=O)=O)c2)cc1,–,–,inactive: 9.65%
CSc1cccc(NC(=O)N[C@H]2C[C@@H](C(=O)N[C@H](Cc3c[nH]c4ccccc34)C(N)=O)N(C(=O)c3cccn3C)C2)c1,"inconclusive: 11.2 µM [inhibitor, single point]",–,–
CN1CCN(c2nc3c(c(=O)[nH]2)CCN(Cc2cn(C)c4ccccc24)CC3)CC1,–,–,inactive: 6.54% [at 5.79 µM]
Cc1c(Cl)cccc1NC(=O)N1CCN(Cc2cc(=O)n3nc(-c4ccccc4F)sc3n2)CC1,"inconclusive: 17.8 µM [inhibitor, single point]",–,–
COc1ccc(-c2noc([C@@H]3C[C@@H](O)CN3Cc3cccnc3)n2)cc1,–,–,inactive: -24.1% [at 44.1 µM]
COc1cc(NC(=O)CN2C(=O)NC3(CCC(C(C)(C)C)CC3)C2=O)cc(OC)c1OC (stereo not drawn),"inconclusive: 2.24 µM [inhibitor, full curve, poor fit]",–,–
Cc1noc(C)c1CC(=O)N1[C@@H]2CC[C@H]1CC(NC(=O)c1ccncc1)C2 (stereo partly drawn),–,–,inactive: 8.75%
Cc1ccccc1N1CCN(C(=O)Cn2nc3n(c2=O)CCC(N)CC3)CC1 (stereo not drawn),–,inactive,–
COc1ccc(OC)c(CN2CC[C@@H]3OCC(=O)N(Cc4ccccc4)[C@H]3CC2)c1,"inconclusive: 7.08 µM [inhibitor, partial curve]",–,–
COCc1ccc(C(=O)N2CCc3[nH]nc(-c4ccccc4F)c3C2)s1,"inconclusive: 14.1 µM [inhibitor, partial curve, poor fit]",–,–
CCOc1cc(C(=O)Nc2ccc3oc(-c4ccc(CC)cc4)nc3c2)cc(OCC)c1OCC,"inconclusive: 20 µM [inhibitor, single point]",–,–
COc1ccccc1CCNC(=O)CCn1c(=O)c2cccn2c2ccc(F)cc21,"inconclusive: 20 µM [inhibitor, single point]",–,–
COc1cc(NC(=O)CN2C(=O)NC3(CCC(C)CC3)C2=O)cc(OC)c1 (stereo not drawn),–,–,inactive: 9.22%
Cc1cc(C)cc(NC(=O)CSCn2nnc3c(=O)[nH]c(Cc4ccc(F)cc4)nc32)c1,–,–,inactive: 31.7%
COc1ccc(CCNC(=O)CCc2c(C)nc3cc(-c4ccccc4)nn3c2C)cc1OC,"inconclusive: 17.8 µM [inhibitor, single point]",–,–
COc1ccc(C(=O)N2CCC(C(=O)N3CCCCCCNC(=O)CC3)CC2)cc1,–,–,inactive: -23.3%
CCC(C)(C)C(=O)N1CC(c2nnc(-c3ccncc3)o2)C2(CCOCC2)C1 (stereo not drawn),"inconclusive: 7.08 µM [inhibitor, partial curve, poor fit]",–,–
Cc1noc(C)c1-c1cc2c(c(-c3ccccc3O)c1)C(=O)N(C)C2=O,"inconclusive: 31.6 µM [inhibitor, single point]",–,–

SMILES,Potency,outcome,"activity, negative = inhibition"
COc1ccc(CN2CC(Oc3ccccc3C(=O)NCc3ccccc3)C2)c(OC)c1,"inconclusive: 1.26 µM [inhibitor, full curve, poor fit]",–,–
O=C1CCN(S(=O)(=O)c2ccccc2)CCCN(S(=O)(=O)c2cccc(F)c2)CCN1,"inconclusive: 7.94 µM [inhibitor, single point]",–,–
COc1ccc2[nH]cc(CCNC(=O)C3Cn4cccc4C(=O)N3Cc3cccnc3)c2c1 (stereo not drawn),"inconclusive: 6.31 µM [inhibitor, partial curve, poor fit]",–,–
Cc1nonc1CN1CCN(c2cc(C3CC(N)C3)nc(N)n2)CC1 (stereo not drawn),–,–,inactive: -6.37%
CSc1cccc(NC(=O)NC[C@H]2C[C@@H]3CCN2C[C@@H]3CN2CCSCC2)c1,active: 10 µM,–,–
COC1CN(C2CCN(C(=O)CC(C)C)CC2)C12CCOCC2 (stereo not drawn),–,–,inactive: -21.4%
COc1cccc(-c2cn3c(n2)NCCC3)c1,"inconclusive: 11.2 µM [inhibitor, single point]",–,–
CCc1ccc(C(=O)NC2CCN(c3cnn(CCOC)c(=O)c3)CC2)cc1,–,inactive,–
CCc1nc(-c2c3n(c(=O)n(CC(=O)Nc4ccccc4Cl)c2=O)CCCC3)no1,–,–,inactive: -14.6%
CCCCN(Cc1ccccc1)C(=O)CN(C)S(=O)(=O)c1ccc2c(c1)c(=O)n(C)c(=O)n2C,"inconclusive: 8.91 µM [inhibitor, single point]",–,–
COCCNc1cc(-c2noc([C@@H]3CCCN3C3CCN(C(C)=O)CC3)n2)ccn1,–,inactive [at 44.1 µM],–
O=C(Nc1cc(C(F)(F)F)ccc1Cl)c1cc(S(=O)(=O)NCc2ccccc2)ccc1F,–,–,inconclusive: -45.1% [inhibitor] [at 0.594 µM]
CCc1cc2c(cc3c(=O)n(CCCC(=O)NCc4ccccc4Cl)nc(CC)n32)s1,–,–,inactive: 2.42%
Cc1cc(C)n(CC(=O)N2CCC(c3nc(CCOCC4CCCC4)no3)C2)n1 (stereo not drawn),–,–,inactive: 2%
O=C1CCN(S(=O)(=O)c2ccccc2)CCCC(C(=O)N2CCOCC2)CCN1 (stereo not drawn),–,–,inactive: -7.84%
CC(=O)c1ccc(NC(=O)C2CCN(S(=O)(=O)c3ccc4c(c3)CCCN4C(=O)C3CCC3)CC2)cc1,"inconclusive: 12.6 µM [inhibitor, partial curve]",–,–
CCOc1ccc(-n2c(SCC(=O)Nc3ccccc3OC)nc3c(oc4ccccc43)c2=O)cc1,"inconclusive: 17.8 µM [inhibitor, single point]",–,–
Cn1ncc(N2CCCC(C(=O)N3CCN(C(=O)c4ccco4)CC3)C2)cc1=O (stereo not drawn),–,–,inactive: 7.49%
CN1CCCC2(Cc3ccccc3CN(C(=O)c3ccc(Cl)cc3)C2)C1 (stereo not drawn),"inconclusive: 6.31 µM [inhibitor, partial curve]",–,–
COc1ccc(S(=O)(=O)N2CCc3c(C(=O)NCCc4cccs4)cccc32)cc1,"inconclusive: 10 µM [inhibitor, single point]",–,–
COc1ccc(C(=O)Nc2nc3c(s2)C[C@@H]2[C@](C)(CO)[C@H](O)CC[C@@]2(C)[C@@H]3CC(=O)NC(C)C)cc1,"inconclusive: 3.98 µM [inhibitor, single point]",–,–
